This passage reports nonsense suppression results from the RNAGym collection of RNA variant scans (doi:10.1101/gad.245936.114).

Variants at the floor of the assay are shown more often than the library holds them.

To fix the notation:
B1: tRNA (parent)
chain: CUCUCGGUAGCCAAGUUGGUUUAAGGCGCAAGACUUUAAUUUAUCACUACGAAAUCUUGAGAUCGGGCGUUCGACUCGCCCCCGGGAGAUUUUUUCCUCGAGCAA

The variants in this series derive from B1. Kind of series: nonsense suppression (GFP-seq) (ratio to wild type); higher = more function; SUP4oc tRNA, yeast GFP reporter sort-seq. The procedure, abridged:
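Yeast were grown in raffinose/galactose medium with 80 mg/L adenine, each strain bearing a genome-integrated ochre-suppressor tRNA variant from a ~3% random-mutation library, a galactose-driven GFP ochre reporter, and RFP. After sorting into GFP/RFP bins, every bin was sequenced on an Illumina platform at phred ≥30. The GFPSEQ value, a measure of nonsense suppression, is the weighted bin median GFP/RFP relative to the unmutated parent tRNA, using each variant's estimated cell share per bin as the weight. Only variants with ≥100 reads and ≥30 cells were included.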
A13G A23G U58A A74G: the nonsense suppression was at most 0.026.

Consider C12U A13U, for which the nonsense suppression turned out to be 0.626.

Consider G7U U57A G59C C64A U70G, for which the nonsense suppression is at most 0.026.

As to A9U G10A G61A, the nonsense suppression is at most 0.026.

As for C11A A23G, the nonsense suppression was at most 0.026.

As to C68A U71C, the nonsense suppression is at most 0.026.

For C3A U57A C80U A89U, the nonsense suppression was at most 0.026.

Turning to A74G U76G, the nonsense suppression was at most 0.026.

For the variant U17G C82A G85A, the nonsense suppression was at most 0.026.

On to C56A G65C, for which the nonsense suppression is at most 0.026.

Regarding A30G A62C, the nonsense suppression was at most 0.026.

On to A23U A33G G59A, for which the nonsense suppression was at most 0.026.

As to A14C A23U A89U, the nonsense suppression was at most 0.026.

On to U20A A54U U76C, for which the nonsense suppression turned out to be 0.24.

In the case of U21C U35A, the nonsense suppression is at most 0.026.

As to G19A U57A, the nonsense suppression was at most 0.026.

As for C68A C79A, the nonsense suppression is at most 0.026.

For A24U C34A U71C, the nonsense suppression was at most 0.026.

Regarding C12G C27A A89G, the nonsense suppression is at most 0.026.

In the case of G10U C27A G85A, the nonsense suppression was found to be 0.159.

C12G U63A: the nonsense suppression was at most 0.026.

Take G6U C64U: the nonsense suppression was at most 0.026.

On to A13U A74U, for which the nonsense suppression was found to be 0.051.

For A14C U57A C72A, the nonsense suppression is at most 0.026.

A60C A74G: the nonsense suppression is 0.0424.

With U17G A33G C56G, the nonsense suppression is at most 0.026.

In the case of C34A A60G C75G C80A, the nonsense suppression was at most 0.026.

On to U8G C34G, for which the nonsense suppression is at most 0.026.

For C3A G26A G28U U58G, the nonsense suppression is at most 0.026.

A31U G69U: the nonsense suppression is at most 0.026.

Take G6U G69C: the nonsense suppression was at most 0.026.

Consider G59U U70A C81U G88U, for which the nonsense suppression is at most 0.026.

For the variant G10C A54U, the nonsense suppression was at most 0.026.

Turning to G18U C29G, the nonsense suppression was at most 0.026.

For the variant G15U C34U U57C, the nonsense suppression was at most 0.026.

For the variant U21A A24U C56U, the nonsense suppression is at most 0.026.

Turning to G26A A31G G59U, the nonsense suppression is at most 0.026.

With U22A U57A U63A U70G, the nonsense suppression is at most 0.026.

For the variant U63C G66A A87C, the nonsense suppression was at most 0.026.

For U55G G59C A89U, the nonsense suppression was at most 0.026.

Consider G65C C79U, for which the nonsense suppression is at most 0.026.

Take C5A G61A U63C C77G: the nonsense suppression is at most 0.026.

As for C3U C68G C82G, the nonsense suppression is at most 0.026.

Consider C3A C68A, for which the nonsense suppression was at most 0.026.

As to C3G C56U G66C G88A A89G, the nonsense suppression was at most 0.026.

For the variant C27G C64U G78C, the nonsense suppression is at most 0.026.

Consider U4A C11A, for which the nonsense suppression was at most 0.026.

A9U U20G A31C C79A: the nonsense suppression was at most 0.026.

As to C5U G26A C27G G28C U55C U58G U70A G88U A89G, the nonsense suppression is at most 0.026.

On to C68A U76G, for which the nonsense suppression is at most 0.026.

With A9U A23U C29G U63C U70C, the nonsense suppression was at most 0.026.

On to U21G C64G U70G, for which the nonsense suppression was at most 0.026.

Regarding U2C G7U C77G, the nonsense suppression was at most 0.026.

On to C1G U16C A23C C29G G61U C72G, for which the nonsense suppression was at most 0.026.

Turning to A13G U58G, the nonsense suppression is at most 0.026.

For G7A C34A U55A, the nonsense suppression is at most 0.026.

On to A13U C27A G73A, for which the nonsense suppression is at most 0.026.

On to C11U A60C A87U, for which the nonsense suppression is at most 0.026.

Consider G19C G32C G67C, for which the nonsense suppression is at most 0.026.

Regarding C3A U20G G28U U57C G61C A74U G78C C79A, the nonsense suppression is at most 0.026.

Take G26A G85U G86C: the nonsense suppression is at most 0.026.

Turning to C34U G85A, the nonsense suppression is at most 0.026.

Take A24U C29G U57G G73C: the nonsense suppression is at most 0.026.

On to G28U A31U C75G, for which the nonsense suppression was at most 0.026.

As for C12U C27U G88U, the nonsense suppression was at most 0.026.

On to C12U C29G, for which the nonsense suppression is at most 0.026.

In the case of A31C C80G, the nonsense suppression is at most 0.026.

Consider G6C A13U A14U U17G G18U G26C A31U G32A U55C A89U, for which the nonsense suppression was at most 0.026.

With U2A A13U, the nonsense suppression was 0.0284.

For C3U G19U A62U, the nonsense suppression is at most 0.026.

Regarding C3U A33G A60G, the nonsense suppression is at most 0.026.

For G61A U76G, the nonsense suppression was 0.0268.

G28U U35G G73A A87C: the nonsense suppression is at most 0.026.

On to U2A U8G U16G A60C, for which the nonsense suppression is at most 0.026.

As for U2G A24U G78A, the nonsense suppression is at most 0.026.

On to U63A C79A, for which the nonsense suppression was at most 0.026.

For U8C G19U U20G G67C G88U, the nonsense suppression was at most 0.026.

On to G66C U76A, for which the nonsense suppression was at most 0.026.

Take G7U A9C A23G: the nonsense suppression was at most 0.026.

A13U A23U G26C G28C: the nonsense suppression was at most 0.026.

Take C1G C82G: the nonsense suppression is at most 0.026.

Take U2C C29A A33U U35A G67A: the nonsense suppression was at most 0.026.

Turning to C3U A60C C83G G86A, the nonsense suppression is at most 0.026.

Consider U2G G78U, for which the nonsense suppression is 0.0774.

With A14U A62G, the nonsense suppression is at most 0.026.

With U17G G19A G66U, the nonsense suppression is at most 0.026.

As to C1G U22C, the nonsense suppression was at most 0.026.

On to U8A G28A U35G, for which the nonsense suppression was at most 0.026.

With G6A A9U, the nonsense suppression was at most 0.026.

Consider A54C C75G, for which the nonsense suppression was 1.15.

Take G66U G73U: the nonsense suppression is at most 0.026.

G7A G32U: the nonsense suppression was at most 0.026.

Turning to A14C G67C C68U A87C, the nonsense suppression was at most 0.026.

Consider G6C U16C G69C, for which the nonsense suppression is at most 0.026.

As to G10A A31U, the nonsense suppression was at most 0.026.

As to C3U A31U, the nonsense suppression is at most 0.026.

As for C1U U58G C77A, the nonsense suppression is at most 0.026.

With C3U A13G C34G, the nonsense suppression stood at 0.439.

In the case of G7C G19A C72G, the nonsense suppression is at most 0.026.

On to C5A A14G, for which the nonsense suppression was at most 0.026.

For the variant G25U U57A, the nonsense suppression was at most 0.026.

C3A U21A A33C G84U: the nonsense suppression was at most 0.026.

For U57A G84U, the nonsense suppression was 0.0408.

Turning to U4A A13U, the nonsense suppression worked out at 0.18.

Take C29U C34U G86A: the nonsense suppression was at most 0.026.

With A23C G32U, the nonsense suppression was at most 0.026.

As to U63G A89C, the nonsense suppression was at most 0.026.

For G61C A89U, the nonsense suppression was at most 0.026.

Take C5G U8G G26C: the nonsense suppression is at most 0.026.

Turning to A9G A23U U55A, the nonsense suppression was at most 0.026.

For the variant A24C G26U, the nonsense suppression stood at 0.038.

For G7A C27A U71G, the nonsense suppression was at most 0.026.

For the variant C56G U58C G66C, the nonsense suppression was at most 0.026.

Consider U2C G7A U20G, for which the nonsense suppression is at most 0.026.

Consider G6U U22C G88C, for which the nonsense suppression was at most 0.026.

On to C1G U8A G65C G73A, for which the nonsense suppression is at most 0.026.

A23C G86U: the nonsense suppression was at most 0.026.

Regarding C12U A60G U71C, the nonsense suppression was at most 0.026.

For A33U G69C, the nonsense suppression is at most 0.026.

As to G32C A60U, the nonsense suppression was at most 0.026.

Regarding G32C A60C, the nonsense suppression is at most 0.026.

Turning to C12A U57C, the nonsense suppression is at most 0.026.

For the variant G32A A62G U71G G78A G85A, the nonsense suppression is at most 0.026.

As to C12U U21A U57G C77G, the nonsense suppression is at most 0.026.

For the variant U2C A62U, the nonsense suppression is at most 0.026.

Regarding C77G C82G G86C, the nonsense suppression is at most 0.026.

Regarding A13G U21C, the nonsense suppression is 0.211.

As to U70G A87U, the nonsense suppression was at most 0.026.

As to G25A G67A, the nonsense suppression was at most 0.026.

As to G15U G69C A74C G84A, the nonsense suppression is at most 0.026.

As for C12U A13C A33G, the nonsense suppression is at most 0.026.

For the variant A14G G32C U55C, the nonsense suppression was at most 0.026.

As for C1A U21A, the nonsense suppression was at most 0.026.

As for C1U A54G G84U, the nonsense suppression is at most 0.026.

On to C64A A74G, for which the nonsense suppression is at most 0.026.

For C56U U70C U76C, the nonsense suppression is at most 0.026.

For A9C U16A A24U A31U U57G C64G C68A G88C, the nonsense suppression was at most 0.026.

G6U U16G G59A G78A: the nonsense suppression was at most 0.026.

For the variant U8A U57C G85U, the nonsense suppression was at most 0.026.

In the case of A14G C27U, the nonsense suppression is at most 0.026.

In the case of G7U G18U A31G C82A, the nonsense suppression was at most 0.026.

Take G28C G67C C83A: the nonsense suppression is at most 0.026.

With C5U G66C U70G, the nonsense suppression is at most 0.026.

As for A9C G18U, the nonsense suppression is at most 0.026.

Turning to A60C G84C G88A, the nonsense suppression was at most 0.026.

For C3G G6U U8A G10C A24G A62C, the nonsense suppression is at most 0.026.

With U58C G61A G73U, the nonsense suppression was at most 0.026.

With G59A G85U, the nonsense suppression is at most 0.026.

In the case of U17A A54G G85U, the nonsense suppression was at most 0.026.

As to G15U U57C C80G, the nonsense suppression is at most 0.026.

On to U16C A33G C64U, for which the nonsense suppression was at most 0.026.

G6C C80G G88U: the nonsense suppression was at most 0.026.

On to U8G G25C, for which the nonsense suppression is at most 0.026.

In the case of A33U G65U, the nonsense suppression was at most 0.026.

C1U A13G A62G: the nonsense suppression was at most 0.026.

Turning to C72G G73C C79G, the nonsense suppression was at most 0.026.

In the case of C3U G32U G78A, the nonsense suppression is at most 0.026.

For the variant G19A A30U A54C, the nonsense suppression is at most 0.026.

Turning to U22G U57C G61C G86A, the nonsense suppression was at most 0.026.

On to A9G A33G U35G G84A, for which the nonsense suppression was at most 0.026.

Turning to C1A C11A G67C A74U, the nonsense suppression was at most 0.026.

As to G18A U21G C34U, the nonsense suppression is at most 0.026.

G7A C11U U57C G61C: the nonsense suppression was at most 0.026.

As for C80U C81A G84A G85C, the nonsense suppression is at most 0.026.

In the case of C1A U4G C11U, the nonsense suppression is at most 0.026.

Turning to G26U U76A G88A, the nonsense suppression was at most 0.026.

As for G67U G69A A74G, the nonsense suppression is at most 0.026.
